This is one part of the list. Repeats are few or missing, and single values can be far off.
Legend:
Assay in all cases: cell count relative to DMSO control; melanoma cells; higher = more viable cells
Conditions in all cases: library dose: low library concentration; 72 h
[1] = system: MZ2-MEL
[2] = system: MeWo
[3] = system: RPMI7951
[4] = system: RVH-421
[5] = system: SkMel28
[6] = system: SkMel30
[7] = system: UACC62
[8] = system: SkMel2
[9] = system: SkMel5
[10] = system: UACC257
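Further: cell number obtained by counting DAPI-stained nuclei in high-throughput microscope images with image analysis software, screen run in 1,536-well plates.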

Cc1cn(-c2cc(NC(=O)c3ccc(C)c(Nc4nccc(-c5cccnc5)n4)c3)cc(C(F)(F)F)c2)cn1 [nilotinib] + CO[C@H]1C[C@@H]2CC[C@@H](C)[C@@](O)(O2)C(=O)C(=O)N2CCCC[C@H]2C(=O)O[C@H]([C@H](C)C[C@@H]2CC[C@@H](OCCO)[C@H](OC)C2)CC(=O)[C@H](C)/C=C(\C)[C@@H](O)[C@@H](OC)C(=O)[C@H](C)C[C@H](C)/C=C/C=C/C=C/1C [everolimus] (first compound 0.2 µM, partner dose 0.02 µM)
cell count [1]: 83.8% | cell count [2]: 71.9% | cell count [3]: 73.2% | cell count [4]: 90.5% | cell count [5]: 42.1% | cell count [6]: 66.7% | cell count [7]: 68.8%

COc1ccc(C2=N[C@@H](c3ccc(Cl)cc3)[C@@H](c3ccc(Cl)cc3)N2C(=O)N2CCNC(=O)C2)c(OC(C)C)c1 [Nutlin-3] + C[C@@H](Oc1cc(-c2cnn(C3CCNCC3)c2)cnc1N)c1c(Cl)ccc(F)c1Cl [Crizotinib] (first compound 0.1 µM, partner dose 0.2 µM)
cell count [1]: 93.6% | cell count [2]: 95% | cell count [3]: 98.9% | cell count [4]: 94.8% | cell count [5]: 80% | cell count [8]: 114% | cell count [6]: 112% | cell count [7]: 68.3%

Cc1cc(Nc2cc(N3CCN(C)CC3)nc(/C=C/c3ccccc3)n2)n[nH]1 + Nc1cccc2c1CN(C1CCC(=O)NC1=O)C2=O [lenalidomide] (first compound 0.04 µM, partner dose 1 µM)
cell count [1]: 102% | cell count [2]: 97.3% | cell count [3]: 93.1% | cell count [4]: 94.2% | cell count [5]: 102% | cell count [6]: 91% | cell count [7]: 87.1%

Cc1cc(Nc2cc(N3CCN(C)CC3)nc(/C=C/c3ccccc3)n2)n[nH]1 + CO[C@H]1C[C@@H]2CC[C@@H](C)[C@@](O)(O2)C(=O)C(=O)N2CCCC[C@H]2C(=O)O[C@H]([C@H](C)C[C@@H]2CC[C@@H](OCCO)[C@H](OC)C2)CC(=O)[C@H](C)/C=C(\C)[C@@H](O)[C@@H](OC)C(=O)[C@H](C)C[C@H](C)/C=C/C=C/C=C/1C [everolimus] (first compound 0.04 µM, partner dose 0.02 µM)
cell count [1]: 69.2% | cell count [2]: 61.2% | cell count [3]: 74.3% | cell count [4]: 84.3% | cell count [5]: 53.4% | cell count [6]: 63.7% | cell count [7]: 66.4%

Cc1cn(-c2cc(NC(=O)c3ccc(C)c(Nc4nccc(-c5cccnc5)n4)c3)cc(C(F)(F)F)c2)cn1 [nilotinib] + CCc1ccc(CCOc2ccc(CC3SC(=O)NC3=O)cc2)nc1 [pioglitazone] (first compound 0.2 µM, partner dose 2 µM)
cell count [2]: 120% | cell count [3]: 90.7% | cell count [4]: 124% | cell count [5]: 102% | cell count [8]: 86.5% | cell count [6]: 91.6% | cell count [9]: 101% | cell count [10]: 101% | cell count [7]: 89.1%

Cc1cn(-c2cc(NC(=O)c3ccc(C)c(Nc4nccc(-c5cccnc5)n4)c3)cc(C(F)(F)F)c2)cn1 [nilotinib] + Nc1cccc2c1CN(C1CCC(=O)NC1=O)C2=O [lenalidomide] (first compound 0.2 µM, partner dose 1 µM)
cell count [1]: 94% | cell count [2]: 96.1% | cell count [3]: 92.3% | cell count [4]: 94.2% | cell count [5]: 102% | cell count [6]: 103% | cell count [7]: 89.8%

CC(C)C[C@H](NC(=O)[C@H](Cc1ccccc1)NC(=O)c1cnccn1)B(O)O [Bortezomib] + Nc1ncn([C@H]2C[C@H](O)[C@@H](CO)O2)c(=O)n1 [decitabine] (first compound 0.001 µM, partner dose 0.1 µM)
cell count [1]: 47.3% | cell count [2]: 78.5% | cell count [3]: 36.7% | cell count [4]: 49.4% | cell count [5]: 85.6% | cell count [6]: 81% | cell count [7]: 49.9%

CC(C)C[C@H](NC(=O)[C@H](Cc1ccccc1)NC(=O)c1cnccn1)B(O)O [Bortezomib] + CO[C@H]1C[C@@H]2CC[C@@H](C)[C@@](O)(O2)C(=O)C(=O)N2CCCC[C@H]2C(=O)O[C@H]([C@H](C)C[C@@H]2CC[C@@H](OCCO)[C@H](OC)C2)CC(=O)[C@H](C)/C=C(\C)[C@@H](O)[C@@H](OC)C(=O)[C@H](C)C[C@H](C)/C=C/C=C/C=C/1C [everolimus] (first compound 0.001 µM, partner dose 0.02 µM)
cell count [1]: 59.6% | cell count [2]: 56% | cell count [3]: 59% | cell count [4]: 41.3% | cell count [5]: 46.4% | cell count [6]: 49.9% | cell count [7]: 49.2%

Cc1cc(Nc2cc(N3CCN(C)CC3)nc(/C=C/c3ccccc3)n2)n[nH]1 + C=C(c1ccc(C(=O)O)cc1)c1cc2c(cc1C)C(C)(C)CCC2(C)C [Bexarotene] (first compound 0.04 µM, partner dose 2 µM)
cell count [2]: 97.1% | cell count [3]: 81.6% | cell count [4]: 109% | cell count [5]: 87.9% | cell count [8]: 94.2% | cell count [6]: 90.3% | cell count [7]: 102%

Cc1cn(-c2cc(NC(=O)c3ccc(C)c(Nc4nccc(-c5cccnc5)n4)c3)cc(C(F)(F)F)c2)cn1 [nilotinib] + C[C@@H](N)c1ccc(C(=O)Nc2ccnc3[nH]ccc23)cc1 [RKI983] (first compound 0.2 µM, partner dose 0.4 µM)
cell count [1]: 66.4% | cell count [3]: 79.8% | cell count [4]: 54.3% | cell count [5]: 74.7% | cell count [8]: 86.8% | cell count [6]: 71.4% | cell count [7]: 92.1%

CC(C)C[C@H](NC(=O)[C@H](Cc1ccccc1)NC(=O)c1cnccn1)B(O)O [Bortezomib] + Clc1ccc(Nc2nnc(Cc3ccncc3)c3ccccc23)cc1 [vatalanib] (first compound 0.001 µM, partner dose 2 µM)
cell count [2]: 75.1% | cell count [3]: 62.3% | cell count [4]: 60% | cell count [5]: 100% | cell count [8]: 113% | cell count [6]: 71.3% | cell count [7]: 75.1%

Cc1cn(-c2cc(NC(=O)c3ccc(C)c(Nc4nccc(-c5cccnc5)n4)c3)cc(C(F)(F)F)c2)cn1 [nilotinib] + CCCS(=O)(=O)Nc1ccc(F)c(C(=O)c2c[nH]c3ncc(Cl)cc23)c1F [PLX4720] (first compound 0.2 µM, partner dose 0.08 µM)
cell count [2]: 93.3% | cell count [3]: 85% | cell count [4]: 79.9% | cell count [5]: 74.8% | cell count [6]: 98.5% | cell count [7]: 73%

COc1ccc(C2=N[C@@H](c3ccc(Cl)cc3)[C@@H](c3ccc(Cl)cc3)N2C(=O)N2CCNC(=O)C2)c(OC(C)C)c1 [Nutlin-3] + CCCCCCCCCCCC1=C(O)C(=O)C=C(O)C1=O [Embelin] (first compound 0.1 µM, partner dose 1.2 µM)
cell count [2]: 115% | cell count [3]: 117% | cell count [4]: 89.7% | cell count [5]: 96.5% | cell count [8]: 92.5% | cell count [6]: 113% | cell count [9]: 105% | cell count [10]: 123% | cell count [7]: 92.4%

Cc1cc(Nc2cc(N3CCN(C)CC3)nc(/C=C/c3ccccc3)n2)n[nH]1 + COc1ccc(Cl)c(Nc2nc3ccccc3nc2NS(=O)(=O)c2cccc(NC(=O)C(C)(C)N)c2)c1 [XL147] (first compound 0.04 µM, partner dose 0.8 µM)
cell count [1]: 96.9% | cell count [2]: 80.3% | cell count [3]: 101% | cell count [4]: 98.4% | cell count [5]: 92.3% | cell count [8]: 99.4% | cell count [6]: 93.8% | cell count [7]: 105%

Cn1c(=O)n(-c2ccc(C(C)(C)C#N)cc2)c2c3cc(-c4cnc5ccccc5c4)ccc3ncc21 + CN1CCN(c2ccc3nc(-c4c(N)c5c(F)cccc5[nH]c4=O)[nH]c3c2)CC1 [Dovitinib] (first compound 0.004 µM, partner dose 0.1 µM)
cell count [1]: 95.3% | cell count [2]: 79.9% | cell count [3]: 96.3% | cell count [4]: 99.9% | cell count [5]: 74.1% | cell count [6]: 99.8% | cell count [7]: 103%

Cn1c(=O)n(-c2ccc(C(C)(C)C#N)cc2)c2c3cc(-c4cnc5ccccc5c4)ccc3ncc21 + CNC(=O)c1cc(Oc2ccc(NC(=O)Nc3ccc(Cl)c(C(F)(F)F)c3)cc2)ccn1 [sorafenib] (first compound 0.004 µM, partner dose 0.4 µM)
cell count [2]: 83.7% | cell count [3]: 89.3% | cell count [4]: 80.3% | cell count [5]: 107% | cell count [8]: 83.5% | cell count [6]: 88.5% | cell count [7]: 104%

Cn1c(=O)n(-c2ccc(C(C)(C)C#N)cc2)c2c3cc(-c4cnc5ccccc5c4)ccc3ncc21 + O=C(O)[C@@H]1[O][Sb](=[O])([O][Sb]2(=[O])[O][C@H]([C@H](O)CO)[C@H](O)[C@H](C(=O)O)[O]2)[O][C@H]([C@H](O)CO)[C@@H]1O [stibogluconate] (first compound 0.004 µM, partner dose 2 µM)
cell count [2]: 101% | cell count [3]: 88.6% | cell count [4]: 112% | cell count [5]: 102% | cell count [8]: 89.4% | cell count [6]: 93.6% | cell count [7]: 107%
